The structures appear in SMILES notation. Screen size: about 48,000 compounds; about 1,200 (2.5%) were called active. Inconclusive results (about 2%) are left out.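 The calls were made as follows: active = activation of at least 60% and not above a set upper limit (about 1 call in 100 departs from these limits); inconclusive = activation of 40% to 60%, or above that upper limit; inactive = activation under 40%.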 This is one part of the list.

Sequence of UniProt O75388 (O75388 whole entry, looked up, the tested form may be a part): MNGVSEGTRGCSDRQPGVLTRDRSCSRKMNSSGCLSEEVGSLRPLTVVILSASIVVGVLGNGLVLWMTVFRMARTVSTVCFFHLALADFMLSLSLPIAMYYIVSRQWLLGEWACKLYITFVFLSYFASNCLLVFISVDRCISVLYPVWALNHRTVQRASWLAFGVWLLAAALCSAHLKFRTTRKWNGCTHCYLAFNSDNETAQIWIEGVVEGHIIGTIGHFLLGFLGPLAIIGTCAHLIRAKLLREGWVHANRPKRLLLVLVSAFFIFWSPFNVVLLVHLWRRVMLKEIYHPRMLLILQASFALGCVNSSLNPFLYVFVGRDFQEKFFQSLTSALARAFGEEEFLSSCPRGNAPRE

This test addresses Probable G-protein coupled receptor 32 (Homo sapiens) (UniProt O75388). Briefly: qHTS for Agonists of Human Resolvin D1 Receptor DRV1. Conditions: CHO-K1 GPR32 beta-arrestin PathHunter luminescence, 90 min; at 76.9 µM; stronger effect = higher value; zero percent set by DMSO-only wells. A digest of the protocol:
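PathHunter enzyme-fragment complementation, CHO-K1 GPR32 stable line; 2,500 cells/well, overnight attach; cpd 90 min 37 °C 5% CO2; detection reagent 1 h RT; chemiluminescence. DMSO = EC0.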
As to `Cc1ccccc1NC(=O)c1sc2nc3n(c(=O)c2c1C)N=C(c1ccccc1)CS3`, the activation is inactive: -11.1%. As to `CN(C)c1ccc(NC(=O)CC(NCc2cccnc2)C(=O)O)cc1` (stereo not drawn), the activation is inactive: -7.51%. The figure for `O=c1c(-c2cc(-c3ccccc3)nc3c2COc2ccc(Cl)cc2-3)coc2ccccc12` is inactive: -3.18%; for `COc1ccc(-n2ccn3c(CC(C)(C)CC(=O)O)nnc3c2=O)cc1` it is inactive: 8.15%; for `Cc1ccc(NC(=O)CCCn2c(=O)c3cccn3c3cccnc32)c(C)c1` it is inactive: -9.37%. The figure for `COc1cccc(CNc2sc3c(c2C(=O)Nc2ccc(OC)cc2OC)CCC3)c1` is inactive: -10.9%. Take `CCC(Sc1nc2nccnc2c(=O)n1Cc1ccc(Cl)cc1)C(=O)NC1CCCCC1` (stereo not drawn): the activation was inactive: -12.3%. The figure for `CCOc1ccc(NC(=O)c2cnn3c2NC(C)=C(C(=O)Nc2ccc(Cl)cc2)C3c2ccc(OC)c(OC)c2)cc1` (stereo not drawn) is inactive: 1.16%; for `Cc1ccc(-c2cnc(C3CC3)o2)cc1S(=O)(=O)Nc1ccc(F)cc1Cl` it is inactive: 17.7%; for `CC(C)CNC(=O)C(=O)Nc1c2c(nn1-c1ccc(Cl)cc1)CSC2` it is inactive: -12.3%. The result for `Cc1cccc(N2CCN(c3ccc4cc(S(=O)(=O)N5CCC(C)CC5)ccc4n3)CC2C)c1` (stereo not drawn) reads inactive: -13.4%; that for `CC(=O)c1ccc(NC(=O)CSc2nccn2C2CCCC2)cc1`, inactive: -9.51%. The result for `CCCn1c(=O)c2sccc2n2c(CCCC(=O)N3CCN(c4ccc(OC)cc4)CC3)nnc12` reads inactive: 7.16%; that for `CC(C)CC(=O)Nc1cccc(-c2cn3cccnc3n2)c1`, inactive: 45.2%.

Take `COc1ccc(S(=O)(=O)NC(C)(C)CO)cc1-c1nnc2c3ccccc3c(C)nn12`: the activation was inactive: -19.8%.

For `O=c1c(N2CCN(c3ccc(F)cc3)CC2)csc2ccc(F)cc12`, the activation is inactive: -49.7%. The figure for `CCOc1ccc(NC(=O)CSc2nc3ccccc3nc2N2CCOCC2)cc1` is inactive: -4.86%; for `COc1ccc(CNC(=O)c2cc3cccc4c3n2CC(C)S4)cc1` (stereo not drawn) it is inactive: -24%.

As to `Cc1nn(-c2cccc(Cl)c2)c2nc(-c3cccnc3)cc(C(F)(F)F)c12`, the activation is inactive: 0.465%.

Regarding `CC1CCN(S(=O)(=O)c2ccc3nc(Nc4cccc(F)c4)ccc3c2)CC1`, the activation was inactive: 13.3%. The figure for `Cc1ccccc1CSc1nc2c([nH]c3ccccc32)c(=O)n1-c1ccccc1` is inactive: -13.5%; for `CCOC(=O)COc1ccc(CC)cc1C(=O)c1ccn2nc(-c3ccc(C)cc3)cc2n1` it is inactive: -7.76%. As for `CCN(CC)CCNC(=O)CN1C(=O)CSc2ccc(S(=O)(=O)N3CCOCC3)cc21`, the activation was inactive: -3.19%. The figure for `Cc1ccc(/C=C/c2onc(C)c2S(=O)(=O)N2CCC(C(=O)Nc3cccc(C#N)c3)CC2)cc1` is inactive: -0.355%.

Consider `Cc1ccc(-c2nnc(Nc3ccc(F)cc3)c3ccccc23)cc1S(=O)(=O)NC(C)C`, for which the activation was inactive: -7.26%. The figure for `N#Cc1c(C(F)(F)F)cc(-c2cccs2)nc1SCC(=O)Nc1cccc(Br)c1` is inactive: -15.4%. The result for `Cc1ccc(C(=O)N2CCN(c3ccccc3)CC2)cc1NC(=O)c1nsc2ccccc12` reads inactive: -13%; that for `O=C(NCCCN1CCN(c2ccccc2F)CC1)c1ccc2nc(Cc3ccccc3)oc2c1`, inactive: -20.4%; that for `CCOc1ccc(-c2cc(NC(=O)Nc3ccccc3Cl)c(C(=O)OC)s2)cc1`, inactive: -0.679%. Turning to `CCc1nnc2c(NCc3ccccc3)nc3ccccc3n12`, the activation was inactive: 10.2%.

On to `Cc1ccc(CNC(=O)CN2N=C(c3ccc(C)cc3)CCC2=O)cc1`, for which the activation was inactive: -18.2%. The result for `CCCN(CCC)CCCNC(=O)Cn1ncn2c(cc3sc(CC)cc32)c1=O` reads inactive: -2.08%; that for `COc1cc(C(O)C(=O)O)ccc1O` (stereo not drawn), inactive: 8.08%; that for `CCN(CC)S(=O)(=O)c1ccc2c(c1)c(=O)c(C(=O)N1CCN(c3ccc(OC)cc3)CC1)cn2C`, inactive: -3.29%.

As to `CCc1ccccc1NC(=O)c1nc2nc(C)cc(C(F)F)n2n1`, the activation is inactive: -7.22%.

On to `CC(C)c1ccc(NC(=O)C2CCCN(S(=O)(=O)c3ccc4[nH]c(=O)oc4c3)C2)cc1` (stereo not drawn), for which the activation was inactive: -3.74%.

As to `Cc1cccc(-c2nnc(SCC(=O)Nc3ccc(C)c(C)c3)o2)c1`, the activation was inactive: -6.91%. The result for `COc1ccc2cc1Oc1ccc(cc1)C[C@H]1c3c(cc4c(c3Oc3cc5c(cc3OC)CCN(C)[C@@H]5C2)OCO4)CCN1C` reads inactive: -29.5%; that for `Cn1c(-c2cccc(Br)c2)cnc1NCc1cccc(F)c1`, inactive: -9.13%. With `CCCS(=O)(=O)c1c(S(=O)(=O)CCC)c2cc(C(C)(C)C)ccn2c1C(=O)c1ccc(C)cc1`, the activation was inactive: 5.3%. The result for `COc1cc(SC)ccc1C(=O)N1CCn2c3c(c4cc(C)ccc42)CCCC31` (stereo not drawn) reads inactive: 9.75%. The result for `COc1cccc(CN2C(=O)c3ccccc3C2C(=O)NCCc2ccccc2)c1` (stereo not drawn) reads inactive: -12%; that for `CCC(C)NC(=O)c1ccc(Cn2c(=O)c3cccn3c3cccnc32)cc1` (stereo not drawn), inactive: -8.69%. As for `COc1ccc(Nc2nnc(-c3cc4cc(Cl)ccc4oc3=O)s2)cc1`, the activation is inactive: 21.9%. The figure for `O=C(NCc1ccc(Cl)cc1)C1CCN(C(=O)c2cnn(-c3ccccc3)c2-n2cccc2)CC1` is inactive: -2.49%. The figure for `COc1ccccc1CNC(=O)CSc1nc2nc(C)c(Cc3ccccc3C)c(C)n2n1` is inactive: -9.02%; for `Cc1ccc(C(=O)Nc2c(C)nc3ccccn3c2=O)cc1` it is inactive: -3.53%; for `Cc1ccc(C)c(N2CCN(C(=O)CCc3c(C)nn(-c4ccc(N5CCCC5)nn4)c3C)CC2)c1` it is inactive: -11.4%.

In the case of `Oc1c(C(c2cccc(Br)c2)N2CCCC2)sc2nc(-c3ccco3)nn12` (stereo not drawn), the activation was inactive: 37.7%. The figure for `O=C(CCCCCn1c(=O)[nH]c2ccsc2c1=O)NCc1ccccc1` is inactive: -16.4%; for `Cc1ccc(-c2nc(CCNC(=O)C(=O)Nc3ccc(C)c(Cl)c3)cs2)cc1` it is inactive: -3.23%. The figure for `CCCOc1ccc(CNC(=O)CCCN2C(=O)CSc3c2c(C)nn3-c2ccccc2)cc1` is inactive: 13%. The figure for `CCOC(=O)c1sc(NC(=O)c2nc3nc(C)cc(C(F)F)n3n2)c(C(=O)OC(C)C)c1C` is inactive: -7.41%.

These data come from PubChem BioAssay AID1346428 (National Center for Advancing Translational Sciences (NCATS), 2018).
